Results from PubChem BioAssay AID686978 (National Center for Advancing Translational Sciences (NCATS), 2013).
About 64,000 (15%) of roughly 420,000 compounds were called active. Inconclusive results, whose numbers are uncertain, are shown with a selection of clear calls. Calls come from the whole dose curve; as a rule, active = well fitted inhibition curve with a large enough effect; inconclusive = small, poorly fitted or top-dose-only effect; inactive = flat fitted curve, though single readings scatter. Potencies of inconclusive entries are left out as doubtful fits.

Test: qHTS for Inhibitors of human tyrosyl-DNA phosphodiesterase 1 (TDP1): qHTS in cells in absence of CPT; note: nearly all actives have a fitted effect of over 55% in size
Conditions: DT40 Tdp1-/- hTDP1 cells, no CPT, ATP luminescence, 48 h; activity change, negative = growth inhibition: at 46.2 µM (top of the series)
Summary of the method: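 Growth of hTDP1-complemented DT40 Tdp1-knockout cells is measured by ATP luminescence after at least 48 hr compound exposure at 37 °C, with DMSO substituting for the 20 nM CPT used in the parallel screen.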
% is set by controls: 0 for no effect and ±100 for the full control effect; potency is the fitted concentration of half-maximal effect; tags give direction and shape of the fitted curve.

Row | SMILES | Potency | activity change, negative = growth inhibition
1 | COc1ccc(/C=C/c2nc(C#N)c(N3CCCCC3)o2)cc1OC | active: 16.4 µM | 
2 | c1ccc(N=C2SCCCS2)cc1 |  | inconclusive: -9.98% [inhibitor]
3 | CCOc1ccc(Oc2ccc(NS(=O)(=O)c3ccc(CCC(=O)O)cc3)cc2)cc1 | inconclusive [inhibitor, full curve, poor fit] | 
4 | CN(C)S(=O)(=O)c1cccc(NC(=O)CNc2cccc(S(=O)(=O)N3CCCCC3)c2)c1 | active: 20.6 µM | 
5 | Clc1ccccc1Nc1nc(NCc2ccccc2)nc2ccsc12 | active: 9.2 µM | 
6 | CC[C@@H](C)[C@@H]1CN([C@@H](CN2CCC[C@H]2CN2C(N)=NC[C@@H]2Cc2ccccc2)C(C)C)C(=N)N1CCCC1CCCC1 | inconclusive [inhibitor, single point] | 
7 | Cc1ccccc1S(=O)(=O)Cc1ccc(C(=O)N2CCN(c3cccc(C)c3C)CC2)o1 | active: 4.11 µM | 
8 | O=C(Nc1ccccc1O)c1ccc(NS(=O)(=O)c2cccc3cccnc23)cc1 | active: 7.31 µM | 
9 | CC(=O)Nc1ccc(NC(=O)CC2Nc3cccc4cccc(c34)NC2=O)cc1 (stereo not given) | inconclusive [inhibitor, partial curve] | 
10 | COc1cccc2cc(-c3nc4sc5c(c4c(=O)[nH]3)CCC(C(C)(C)C)C5)c(=O)oc12 (stereo not given) | inactive | 
11 | CC(C)COc1ccc(C(=O)Nc2ncn[nH]2)cc1 | inactive | 
12 | COc1ccc(-c2csc(NCCc3nc4cc(Cl)c(Cl)cc4n3CCCO)n2)cc1 | active: 18.4 µM | 
13 | COc1ccc(S(=O)(=O)c2c(Nc3cccc(Cl)c3)sc(C(=O)c3ccccc3)c2N)cc1 | inconclusive [inhibitor, partial curve] | 
14 | COc1ccccc1NS(=O)(=O)c1cc(C(=O)N2CCCCCCC2)ccc1C | inconclusive [inhibitor, single point] | 
15 | Cc1ccc(C)c(S(=O)(=O)NCC(=O)Nc2sc3c(c2C(N)=O)CCC(C)C3)c1 (stereo not given) |  | inconclusive: -36.2% [inhibitor]
16 | O=C(CCCCCn1c(=O)[nH]c2ccccc2c1=O)NCCc1c[nH]c2ccccc12 | inactive | 
17 | O=C(CSc1nc2ccccc2c(=O)n1-c1ccc(OC(F)F)cc1)NC1CC1 | inconclusive [inhibitor, single point] | 
18 | C=CCN(Cc1cccs1)C(=O)COc1ccc2c(c1)OCO2 | inconclusive [inhibitor, single point] | 
19 | CCCCN(Cc1cc2cc(C)ccc2[nH]c1=O)C(=O)c1cccc(Cl)c1 | inconclusive [inhibitor, partial curve] | 
20 | CCc1ccc(NC(=O)Cn2ncn3c(cc4ccccc43)c2=O)cc1 | inconclusive [inhibitor, single point] | 
21 | O=C(NCc1ccccc1)c1cc(C2COCCN2C(=O)c2ccc3c(c2)CCO3)on1 (stereo not given) | inactive | 
22 | CCOC(=O)C1(C)C=C(Nc2ccc(OCC)cc2)C(=O)N1c1ccccc1 (stereo not given) | inconclusive [inhibitor, single point] | 
23 | Cc1cccc(C(=O)N2CCc3ccccc3C2)c1[N+](=O)[O-] | inconclusive [inhibitor, single point] | 
24 | O=C(N[C@H]1C/C=C\C[C@@H](CC(=O)N(CCO)Cc2ccccc2)C(=O)NC[C@H](c2ccccc2)OC1=O)OCC1c2ccccc2-c2ccccc21 | active: 4.11 µM | 

Row | SMILES | Potency | activity change, negative = growth inhibition
25 | CCOC(=O)CNNC(=O)Nc1ccc(Cl)c(Cl)c1 | inactive | 
26 | COc1cc2c(cc1OC)C(c1ccccc1)NCC2 (stereo not given) | inactive | 
27 | CC(N=C1NS(=O)(=O)c2ccccc21)c1ccccc1 (stereo not given) | inconclusive [inhibitor, single point] | 
28 | N#Cc1c(N)nc2c(c1-c1ccc3c(c1)OCO3)CCCCCC2 | inconclusive [inhibitor, partial curve] | 
29 | CCC1S/C(=N/N=C/c2ccco2)N(Cc2ccc(F)cc2)C1=O (stereo not given) | inconclusive [inhibitor, full curve] | 
30 | COc1cc2c(cc1OC)CN(CC(=O)Nc1ccc(F)cc1F)CC2 | inactive | 
31 | COc1ccc(C2/C=C\CN(Cc3ccncc3)CC(=O)N2Cc2ccc(F)cc2)cc1 (stereo not given) |  | inconclusive: -35% [inhibitor]
32 | CCOc1ccc2c(c1)c1nnc(SCC(=O)N3CCC(C)CC3)nc1n2C | inconclusive [inhibitor, single point] | 
33 | O=C(COC(=O)/C=C/c1cccc(Cl)c1)Nc1cccc(S(=O)(=O)NC2=NCCC2)c1 | inactive | 
34 | Cc1c(C(=O)N/N=C/c2ccccc2)[nH]c2c([N+](=O)[O-])cccc12 | active: 0.92 µM | 
35 | C[C@H](O)[C@@H]1CN2CCc3c([nH]c4ccc(-c5ccc6c(c5)OCO6)cc34)[C@@H]2C[C@@H]1N(C)C(=O)NC1CCCCC1 |  | inconclusive: -24% [inhibitor]
36 | Cc1cccc(-c2nc(SCc3cc(=O)c4c(C)cc(C)cc4[nH]3)n[nH]2)c1 | inconclusive [inhibitor, single point] | 
37 | CC(=O)Nc1ccc(S(=O)(=O)Nc2cccc(-c3cn4cccnc4n3)c2)cc1 | inactive | 
38 | COc1ccc(COC(=O)C2CCN(S(=O)(=O)c3ccc(OC)c(OC)c3)CC2)cc1 | inactive | 
39 | COCCCNC(=O)/C=C/c1ccc(Cl)cc1Cl | inconclusive [inhibitor, single point] | 
40 | CCOC(=O)c1c(-c2ccccc2)csc1NC(=O)CCN1CCOCC1 | active: 23.1 µM | 
41 | CSCc1ccc(C(=O)NCC(c2cccs2)N2CCOCC2)cc1 (stereo not given) | inconclusive [inhibitor, full curve, poor fit] | 
42 | CN1CCN(c2ccc(NC(=O)c3cccc(OCc4ccccc4)c3)cc2)CC1 | active: 23.1 µM | 
43 | COc1ccc(C)cc1NC(=O)CSc1nnc(-c2ccco2)n1Cc1ccco1 | inconclusive [inhibitor, partial curve, poor fit] | 
44 | CC1=NN(C(N)=S)C(=O)C1N=Nc1ccc(F)cc1 (stereo not given) | inconclusive [inhibitor, partial curve] | 
45 | Cc1cc2ccccn2c1C(=O)Nc1cccc(Cl)c1 | inconclusive [inhibitor, single point] | 
46 | COc1cc(CNC(=O)c2cnc(C)cn2)cc(OC)c1 | inactive | 
47 | CCOC(=O)C1=C(C)NC(=S)N(C=O)C1c1ccccc1 (stereo not given) | inconclusive [inhibitor, single point] | 
48 | CC(C)Cc1ccc(/C=C/C(=O)N2CCOCC2)cc1 | inconclusive [inhibitor, single point] | 

Row | SMILES | Potency | activity change, negative = growth inhibition
49 | CCOc1ccc(N2CC(C(=O)NCCc3c[nH]c4ccc(C)cc34)CC2=O)cc1 (stereo not given) | inconclusive [inhibitor, single point] | 
50 | O=S(=O)(/C=C/c1ccccc1)Nc1ccc(N2CCOCC2)cc1 | inconclusive [inhibitor, single point] | 
51 | Cc1ccc(S(=O)(=O)NCc2ccc(C(=O)N3CCN(c4ccccc4)CC3)cc2)cc1 | inconclusive [inhibitor, single point] | 
52 | c1ccc2[nH]c(-c3nc4ccccc4[nH]3)nc2c1 | inconclusive [inhibitor, single point] | 
53 | Nc1nc(-c2ccc3ccccc3c2)cs1 | inactive | 
54 | c1ccc(CSC2=NNC(c3ccccn3)S2)cc1 (stereo not given) | active: 0.164 µM | 
55 | CC[C@@]1(C(=O)OC)N[C@H](CN(C)C(=O)Nc2ccc(F)cc2)[C@@H]2C(=O)N(Cc3ccccc3)C(=O)[C@@H]21 | inactive | 
56 | COc1ccc(CN(C(=O)Cc2cccs2)C(C(=O)NC2CCCC2)c2ccncc2)cc1 (stereo not given) | inconclusive [inhibitor, partial curve] | 
57 | O=C(Cn1nc2c(cc1=O)CCCC2)NCc1ccc(Cl)cc1 | active: 18.4 µM | 
58 | Cc1cccc(CSc2cn(CC(=O)N3CCOCC3)c3ccccc23)c1 | inconclusive [inhibitor, single point] | 
59 | CN1CCc2c(OCC(=O)NC3CCCCC3)cccc2C1=O | inactive | 
60 | Cn1c(=O)c2c(-c3ccccc3)n(-c3ccccc3)cc2n(C)c1=O | active: 4.61 µM | 
61 | C=CCN(CC=C)C(=S)NC(=O)Cc1cccc2ccccc12 | inconclusive [inhibitor, single point] | 
62 | CSc1nn2c(C(F)(F)F)cc(C(F)(F)F)nc2c1C(=O)O | inactive | 
63 | CCCNC(=O)c1ccc2c(c1)N=C(CCC)c1ccccc1S2 | active: 0.731 µM | 
64 | COc1ccc(-c2nn(-c3ccccc3)cc2C(=O)N(C)CC(=O)Nc2cccc(F)c2)cc1 | inconclusive [inhibitor, single point] | 
65 | Cc1ccc(Cl)cc1-n1ncc2c(NCCc3ccccc3)ncnc21 | active: 20.6 µM | 
66 | COc1cccc(NC(=O)Cn2nc(N3CCN(c4ccccc4)CC3)ccc2=O)c1 | inconclusive [inhibitor, single point] | 
67 | CCN(CC)S(=O)(=O)c1cccc(C(=O)N/N=C/c2ccc(N3CCOCC3)cc2)c1 | inconclusive [inhibitor, partial curve] | 
68 | Cc1ccc(OCC(=O)Nc2ccc(OCc3cc(=O)n4ccsc4n3)cc2)cc1C | inconclusive [inhibitor, partial curve, poor fit] | 
69 | CCC(=O)N1CCc2cc(S(=O)(=O)NC(Cc3ccccc3)C(=O)NCc3ccccc3)ccc21 (stereo not given) | inconclusive [inhibitor, single point] | 
70 | COc1cc(CNCCN2CCOCC2)ccc1OCc1ccc(Cl)cc1 | inconclusive [inhibitor, single point] | 
